Assay [1] addresses human PD-L1 expressed on cells (human, UniProt Q9NZQ7). Description: cell-based or functional assay.
For assay [2], the target named is T1, hPD-L1 (Acro Biosystems, PD1-H5229) (human, UniProt Q9NZQ7 fragment).
T1 construct: also called human PD-L1; hPD-L1 protein
Description: ELISA, hPD-L1 coated, anti-human Fc-HRP, OD450. In general terms: An ELISA detects its analyte on a solid surface through an enzyme-linked reagent.

The next assay has as its target T2, human PD-L1-His (human, UniProt Q9NZQ7 fragment, limits assumed).
T2 construct: not shown: His tag
Description: SPR (Biacore); fusion on Protein A chip, PD-L1 his as analyte. (Surface plasmon resonance follows binding to a sensor surface in real time, without labels.)

Assay [3] has as its target T1, hPD-L1 (Acro Biosystems, PD1-H5229). Description: ELISA, hPD-L1 coated, anti-human Fc-HRP, OD450. The source holds these as a separate data set.
For a further assay, the target named is T3, human PD-L1-Fc (human, UniProt Q9NZQ7 fragment).
T3 construct: also called hPD-L1-Fc; human PD-L1-Fc (Sino Biological, 70110-D02H); not shown: Fc part
The experiment in a line: competition ELISA, hPD-L1-Fc coated; blocked ligand B7-1, OD450.

Like-named read-outs stand apart in the source and are kept apart here.

This is an account of results in patent US20250282874A1 (SUZHOU TRANSCENTA THERAPEUTICS, published 2025).

T1 sequence (Q9NZQ7 19-238 limits assumed): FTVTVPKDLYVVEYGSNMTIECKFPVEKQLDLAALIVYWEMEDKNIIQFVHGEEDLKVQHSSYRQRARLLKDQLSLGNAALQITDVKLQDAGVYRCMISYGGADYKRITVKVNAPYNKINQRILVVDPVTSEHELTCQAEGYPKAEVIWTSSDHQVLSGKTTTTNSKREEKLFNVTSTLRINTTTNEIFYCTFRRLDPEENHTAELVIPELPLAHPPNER
Chain of human PD-L1-His (Q9NZQ7 19-238 limits assumed): as above
Chain of human PD-L1-Fc (Q9NZQ7 19-239 limits assumed): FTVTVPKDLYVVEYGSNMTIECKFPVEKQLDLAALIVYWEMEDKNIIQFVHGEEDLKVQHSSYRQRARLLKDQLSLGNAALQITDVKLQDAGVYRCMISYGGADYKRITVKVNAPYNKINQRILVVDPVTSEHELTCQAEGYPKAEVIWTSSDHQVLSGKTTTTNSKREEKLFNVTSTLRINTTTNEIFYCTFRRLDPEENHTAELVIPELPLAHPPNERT

B1: AM-4B6-hIgG1-TGFβRII variant 10 (other)
heavy: QVQLVQSGAEVKKPGASVKVSCKASGYVFTDYYMNWVRQAPGQSLEWMGDINPNNAQTVYNHKFKGRVTVTVDKSISTAYMELSRLRSDDTAVYYCVKWGDGPFAYWGQGTLVTVSS[human IgG1 constant region omitted here]GGGGSGGGGSGGGGSGGGGSGTIPPHVQKSVNNDMIVTDNNGAVKFPQLCKFCDVRFSTCDNQKSCMSNCSITSICEKPQEVCVAVWRKNDENITLETVCHDPKLPYHDFILEDAASPKCIMKEKKKPGETFFMCSCSSDECNDNIIFSEEYNTSNPD
light: DIQMTQSPSSLSASVGDRVTITCKASQNVPAAVAWYQQKPGKAPKLLIYSASNRYTGVPSRFSGSGSGTDFTLTISSLQPEDIATYYCQQYSNYPTFGQGTKLEIKRTVAAPSVFIFPPSDEQLKSGTASVVCLLNNFYPREAKVQWKVDNALQSGNSQESVTEQDSKDSTYSLSSTLTLSKADYEKHKVYACEVTHQGLSSPVTKSFNRGEC
With B1, in assay [1], the “EC50, NFAT-luciferase luminescence, 293T-PD-L1-CD3L cells with Jurkat-NFAT-Luc-PD1 cells” value (“EC50, NFAT-luciferase luminescence” below) worked out at 1.2 nM. The “EC50 (read off the curve)” value in assay [2] is around 0.4 nM. Also, in the assay with human PD-L1-His, the Kd is 0.604 nM, the koff worked out at 0.000148 s⁻¹ and the kon worked out at 244000 M⁻¹ s⁻¹.

B2: AM-4B6-hIgG1-TGFβRII variant 2 (other)
heavy: QVQLVQSGAEVKKPGASVKVSCKASGYVFTDYYMNWVRQAPGQSLEWMGDINPNNAQTQYNHKFKGRVTVTVDKSISTAYMELSRLRSDDTAVYYCVKWGDGPFAYWGQGTLVTVSS[human IgG1 constant region omitted here]GGGGSGGGGSGGGGSGGGGSGTIPPHVQKSVNNDMIVTDNNGAVKFPQLCKFCDVRFSTCDNQKSCMSNCSITSICEKPQEVCVAVWRKNDENITLETVCHDPKLPYHDFILEDAASPKCIMKEKKKPGETFFMCSCSSDECNDNIIFSEEYNTSNPD
light: DIQMTQSPSSLSASVGDRVTITCKASQNVPAAVAWYQQKPGKAPKLLIYSASNRYTGVPSRFSGSGSGTDFTLTISSLQPEDIATYYCQQYSNYPTFGQGTKLEIKRTVAAPSVFIFPPSDEQLKSGTASVVCLLNNFYPREAKVQWKVDNALQSGNSQESVTEQDSKDSTYSLSSTLTLSKADYEKHKVYACEVTHQGLSSPVTKSFNRGEC
As for B2, the “EC50, NFAT-luciferase luminescence” value in assay [1] was determined as 0.868 nM. Besides, in the assay with human PD-L1-His, binding was characterised by a dissociation constant (Kd) of 0.519 nM, the koff came to 0.000168 s⁻¹ and the kon was found to be 323000 M⁻¹ s⁻¹.

B3: AM-4B6-hIgG1-TGFβRII variant 11 (other)
heavy: QVQLVQSGAEVKKPGASVKVSCKASGYVFTDYYMNWVRQAPGQSLEWMGDINPNNAQTVYNHKFKGRVTVTVDKSISTAYMELSRLRSDDTAVYYCVKWGDGPFAYWGQGTLVTVSS[human IgG1 constant region omitted here]GGGGSGGGGSGGGGSGGGGSGTIPPHVQKSVNNDMIVTDNNGAVKFPQLCKFCDVRFSTCDNQKSCMSNCSITSICEKPQEVCVAVWRKNDENITLETVCHDPKLPYHDFILEDAASPKCIMKEKKKPGETFFMCSCSSDECNDNIIFSEEYNTSNPD
light: DIQMTQSPSSLSASVGDRVTITCKASQNVGAAVAWYQQKPGKAPKLLIYSVSDRYTGVPSRFSGSGSGTDFTLTISSLQPEDIATYYCQQYSNYPTFGQGTKLEIKRTVAAPSVFIFPPSDEQLKSGTASVVCLLNNFYPREAKVQWKVDNALQSGNSQESVTEQDSKDSTYSLSSTLTLSKADYEKHKVYACEVTHQGLSSPVTKSFNRGEC
B3: the “EC50, NFAT-luciferase luminescence” value in assay [1] amounted to 0.893 nM. The “EC50 (read off the curve)” value in assay [2] is around 0.4 nM. In the assay with human PD-L1-His, this molecule had a dissociation constant Kd of 0.508 nM, a koff of 0.000137 s⁻¹ and an on-rate (kon) of 269000 M⁻¹ s⁻¹.

B4: AM-4B6-hIgG1-TGFβRII variant 9 (other)
heavy: QVQLVQSGAEVKKPGASVKVSCKASGYVFTDYYMNWVRQAPGQSLEWMGDINPNNAQTVYNHKFKGRVTVTVDKSISTAYMELSRLRSDDTAVYYCVKWGDGPFAYWGQGTLVTVSS[human IgG1 constant region omitted here]GGGGSGGGGSGGGGSGGGGSGTIPPHVQKSVNNDMIVTDNNGAVKFPQLCKFCDVRFSTCDNQKSCMSNCSITSICEKPQEVCVAVWRKNDENITLETVCHDPKLPYHDFILEDAASPKCIMKEKKKPGETFFMCSCSSDECNDNIIFSEEYNTSNPD
light: DIQMTQSPSSLSASVGDRVTITCKASQNVKGAVAWYQQKPGKAPKLLIYSASNRYTGVPSRFSGSGSGTDFTLTISSLQPEDIATYYCQQYSNYPTFGQGTKLEIKRTVAAPSVFIFPPSDEQLKSGTASVVCLLNNFYPREAKVQWKVDNALQSGNSQESVTEQDSKDSTYSLSSTLTLSKADYEKHKVYACEVTHQGLSSPVTKSFNRGEC
In the case of B4, the “EC50 (read off the curve)” value in assay [2] is around 0.4 nM.

B5: AM-4B6-hIgG1-TGFβRII variant 5 (other)
heavy: QVQLVQSGAEVKKPGASVKVSCKASGYVFTDYYMNWVRQAPGQSLEWMGDINPNNAETLYNHKFKGRVTVTVDKSISTAYMELSRLRSDDTAVYYCVKWGDGPFAYWGQGTLVTVSS[human IgG1 constant region omitted here]GGGGSGGGGSGGGGSGGGGSGTIPPHVQKSVNNDMIVTDNNGAVKFPQLCKFCDVRFSTCDNQKSCMSNCSITSICEKPQEVCVAVWRKNDENITLETVCHDPKLPYHDFILEDAASPKCIMKEKKKPGETFFMCSCSSDECNDNIIFSEEYNTSNPD
light: DIQMTQSPSSLSASVGDRVTITCKASQNVKGAVAWYQQKPGKAPKLLIYSASNRYTGVPSRFSGSGSGTDFTLTISSLQPEDIATYYCQQYSNYPTFGQGTKLEIKRTVAAPSVFIFPPSDEQLKSGTASVVCLLNNFYPREAKVQWKVDNALQSGNSQESVTEQDSKDSTYSLSSTLTLSKADYEKHKVYACEVTHQGLSSPVTKSFNRGEC
For B5, the “EC50, NFAT-luciferase luminescence” value in assay [1] is 1.07 nM. Besides, the “EC50 (read off the curve)” value in assay [3] is around 0.6 nM. In the assay with human PD-L1-His, this molecule registered an equilibrium dissociation constant (Kd) of 0.722 nM, a koff of 0.000149 s⁻¹ and a kon of 206000 M⁻¹ s⁻¹.

B6: AM-4B6-hIgG1-TGFβRII variant 8 (other)
heavy: QVQLVQSGAEVKKPGASVKVSCKASGYVFTDYYMNWVRQAPGQSLEWMGDINPNNAETLYNHKFKGRVTVTVDKSISTAYMELSRLRSDDTAVYYCVKWGDGPFAYWGQGTLVTVSS[human IgG1 constant region omitted here]GGGGSGGGGSGGGGSGGGGSGTIPPHVQKSVNNDMIVTDNNGAVKFPQLCKFCDVRFSTCDNQKSCMSNCSITSICEKPQEVCVAVWRKNDENITLETVCHDPKLPYHDFILEDAASPKCIMKEKKKPGETFFMCSCSSDECNDNIIFSEEYNTSNPD
light: DIQMTQSPSSLSASVGDRVTITCKASQNVGAAVAWYQQKPGKAPKLLIYSRSVRYTGVPSRFSGSGSGTDFTLTISSLQPEDIATYYCQQYSNYPTFGQGTKLEIKRTVAAPSVFIFPPSDEQLKSGTASVVCLLNNFYPREAKVQWKVDNALQSGNSQESVTEQDSKDSTYSLSSTLTLSKADYEKHKVYACEVTHQGLSSPVTKSFNRGEC
In the case of B6, the “EC50 (read off the curve)” value in assay [3] is around 0.6 nM.

B7: AM-4B6-hIgG1-TGFβRII variant 7 (other)
heavy: QVQLVQSGAEVKKPGASVKVSCKASGYVFTDYYMNWVRQAPGQSLEWMGDINPNNAETLYNHKFKGRVTVTVDKSISTAYMELSRLRSDDTAVYYCVKWGDGPFAYWGQGTLVTVSS[human IgG1 constant region omitted here]GGGGSGGGGSGGGGSGGGGSGTIPPHVQKSVNNDMIVTDNNGAVKFPQLCKFCDVRFSTCDNQKSCMSNCSITSICEKPQEVCVAVWRKNDENITLETVCHDPKLPYHDFILEDAASPKCIMKEKKKPGETFFMCSCSSDECNDNIIFSEEYNTSNPD
light: DIQMTQSPSSLSASVGDRVTITCKASQNVGAAVAWYQQKPGKAPKLLIYSVSDRYTGVPSRFSGSGSGTDFTLTISSLQPEDIATYYCQQYSNYPTFGQGTKLEIKRTVAAPSVFIFPPSDEQLKSGTASVVCLLNNFYPREAKVQWKVDNALQSGNSQESVTEQDSKDSTYSLSSTLTLSKADYEKHKVYACEVTHQGLSSPVTKSFNRGEC
For B7, the “EC50, NFAT-luciferase luminescence” value in assay [1] amounted to 0.711 nM. In assay [3], the “EC50 (read off the curve)” value was around 0.6 nM. In the assay with human PD-L1-His, the Kd came out at 0.388 nM, the koff worked out at 0.000148 s⁻¹ and the association rate constant (kon) is 382000 M⁻¹ s⁻¹. For the same molecule, the IC50 in the assay with human PD-L1-Fc came out at 1.19 nM.

B8: AM-4B6-hIgG1-TGFβRII variant 12 (other)
heavy: QVQLVQSGAEVKKPGASVKVSCKASGYVFTDYYMNWVRQAPGQSLEWMGDINPNNAQTVYNHKFKGRVTVTVDKSISTAYMELSRLRSDDTAVYYCVKWGDGPFAYWGQGTLVTVSS[human IgG1 constant region omitted here]GGGGSGGGGSGGGGSGGGGSGTIPPHVQKSVNNDMIVTDNNGAVKFPQLCKFCDVRFSTCDNQKSCMSNCSITSICEKPQEVCVAVWRKNDENITLETVCHDPKLPYHDFILEDAASPKCIMKEKKKPGETFFMCSCSSDECNDNIIFSEEYNTSNPD
light: DIQMTQSPSSLSASVGDRVTITCKASQNVGAAVAWYQQKPGKAPKLLIYSRSVRYTGVPSRFSGSGSGTDFTLTISSLQPEDIATYYCQQYSNYPTFGQGTKLEIKRTVAAPSVFIFPPSDEQLKSGTASVVCLLNNFYPREAKVQWKVDNALQSGNSQESVTEQDSKDSTYSLSSTLTLSKADYEKHKVYACEVTHQGLSSPVTKSFNRGEC
For the molecule B8, in assay [2], the “EC50 (read off the curve)” value is around 0.4 nM.

B9: AM-4B6-hIgG1-TGFβRII variant 6 (other)
heavy: QVQLVQSGAEVKKPGASVKVSCKASGYVFTDYYMNWVRQAPGQSLEWMGDINPNNAETLYNHKFKGRVTVTVDKSISTAYMELSRLRSDDTAVYYCVKWGDGPFAYWGQGTLVTVSS[human IgG1 constant region omitted here]GGGGSGGGGSGGGGSGGGGSGTIPPHVQKSVNNDMIVTDNNGAVKFPQLCKFCDVRFSTCDNQKSCMSNCSITSICEKPQEVCVAVWRKNDENITLETVCHDPKLPYHDFILEDAASPKCIMKEKKKPGETFFMCSCSSDECNDNIIFSEEYNTSNPD
light: DIQMTQSPSSLSASVGDRVTITCKASQNVPAAVAWYQQKPGKAPKLLIYSASNRYTGVPSRFSGSGSGTDFTLTISSLQPEDIATYYCQQYSNYPTFGQGTKLEIKRTVAAPSVFIFPPSDEQLKSGTASVVCLLNNFYPREAKVQWKVDNALQSGNSQESVTEQDSKDSTYSLSSTLTLSKADYEKHKVYACEVTHQGLSSPVTKSFNRGEC
In the case of B9, in assay [3], the “EC50 (read off the curve)” value was around 0.6 nM.

The term EC50 (read off the curve) denotes the concentration giving half of the maximal effect. Lower therefore signals greater potency. As usually defined, the Kd is the constant that tells how readily two partners part at equilibrium. Low values mean tighter binding, high ones weaker binding. As usually defined, the koff is the first-order rate constant of dissociation. A lower koff goes with slow dissociation. The term kon denotes the rate constant with which the complex forms. Lower therefore signals slower complex formation. As usually defined, the IC50 is the concentration at which inhibition is half-maximal.
